Some entries of the source have several records that differ or are many. The other results are left out here. There may be further records. Values that stand side by side repeat one measurement across runs, samples, wells, individuals or studies. Records carry a tag for their origin. Letters count within one entry.
Organism: Rattus norvegicus
Assay: DrugMatrix - Regimen: Daily Repeat
Type: toxicity, organism-based, Sprague-Dawley
Design: regimen Daily Repeat, gender Male, age 6-8 weeks
Conditions: in vivo, po, 0 mg/kg, 72 h, route oral GAVAGE, dose level Control, time 3 day, vehicle 100 % SALINE

## CN(C)C=O [DIMETHYLFORMAMIDE]
Tissue Blood
  ABSOLUTE EOSINOPHIL: 0 CELLS/uL [study A] and 66 CELLS/uL [study B]
  ABSOLUTE MONOCYTE: 103.5 CELLS/uL [study A] and 401.5 CELLS/uL [study B]
Tissue Plasma
  LACTATE DEHYDROGENASE: 513.5 u/L [study A] and 88.17 u/L [study B]

Source: ChEMBL document CHEMBL3885881, “DrugMatrix”
